Source: the BET-seq Pho4 binding data (Le et al. 2018)
The list shows a part of the results. The energies were worked out here from pooled read counts, against the library average; single values are noisy.

target: T1, Pho4 (S. cerevisiae) (UniProt P07270); test: relative binding free energy (BET-seq); higher = weaker binding; settings: reference: library average
T1 sequence: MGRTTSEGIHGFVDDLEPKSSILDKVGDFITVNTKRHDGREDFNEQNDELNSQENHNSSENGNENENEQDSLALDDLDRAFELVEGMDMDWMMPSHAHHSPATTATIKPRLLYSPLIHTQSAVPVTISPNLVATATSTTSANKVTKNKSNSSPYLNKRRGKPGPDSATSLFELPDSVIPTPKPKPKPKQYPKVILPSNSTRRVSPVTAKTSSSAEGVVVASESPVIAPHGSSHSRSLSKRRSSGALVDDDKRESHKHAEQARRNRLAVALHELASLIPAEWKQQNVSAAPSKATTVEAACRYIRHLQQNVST

Relative binding free energy, 0.3 kcal/mol:
AGGTTCACGTGTGGGA

Relative binding free energy, 0.02 kcal/mol:
CGTATCACGTGGGTGC, GTGCCCACGTGTGTTT, TATGTCACGTGGGATG, TCTTGCACGTGGATAT, GTTCCCACGTGTTGTT, GTCTACACGTGGTGTG, TCAGTCACGTGGTTTA, GGCTACACGTGGGGCT, GGAGACACGTGTTGCG, TGTGACACGTGTGTGT, AGAGTCACGTGCCGGG, TGCTGCACGTGGCTAG

Relative binding free energy, 0.45 kcal/mol:
TTTTTCACGTGAAGCT

Relative binding free energy, 0.08 kcal/mol:
CGCTTCACGTGGGTTA, AGGTACACGTGTGCTG, AGGCGCACGTGATTGT

Relative binding free energy, -0.28 kcal/mol:
CATAGCACGTGGGGGA, TAGAGCACGTGGCAGG

Relative binding free energy, 0.21 kcal/mol:
GTGCACACGTGAGGGA, GAGGTCACGTGTTGTT, TGTTACACGTGAGTAC, TAGTTCACGTGGTGTG, GGGATCACGTGTTGAG, TTTGTCACGTGATAAT

Relative binding free energy, -0.03 kcal/mol:
TGGTGCACGTGTCCGA, CTAGGCACGTGTTATT, AGAGTCACGTGCTGTT, GAGTACACGTGGGATA, AGTCTCACGTGGGGAT

Relative binding free energy, 0.1 kcal/mol:
GGAAGCACGTGTGAGT, AAGGTCACGTGGGGAT, TGTTACACGTGTTCGA, TAGTCCACGTGTGTGG

Relative binding free energy, 0 kcal/mol:
GAAAGCACGTGTAGGG, AGAGTCACGTGGTTAT, GAGTGCACGTGGTACG, GAATGCACGTGGGAAG, TGATGCACGTGCTGTG, TGTTACACGTGTTGAA

Relative binding free energy, -0.21 kcal/mol:
ACTGGCACGTGGTAGG

Relative binding free energy, -0.2 kcal/mol:
TAAAGCACGTGTTTAT, AATGGCACGTGGGGTA

Relative binding free energy, -0.22 kcal/mol:
ATATCCACGTGGGGTG

Relative binding free energy, 0.03 kcal/mol:
TGGATCACGTGGGCAG, TCTGTCACGTGCGTGT, AGCGGCACGTGTTAAT, CAGTGCACGTGGAGGG, TGGGCCACGTGTATAG

Relative binding free energy, -0.12 kcal/mol:
TGTAGCACGTGCAGGA

Relative binding free energy, 0.09 kcal/mol:
AAATACACGTGTGGGT, TTCTACACGTGGCTGG, GTTTGCACGTGATAGT

Relative binding free energy, 0.24 kcal/mol:
TGCTTCACGTGTAGGA, GGATACACGTGGAAGT, TTTGACACGTGTAATC, TGTAACACGTGAGGGT, TTAATCACGTGTAGGC, TCGTGCACGTGAAATG

Relative binding free energy, 0.06 kcal/mol:
TATGTCACGTGTCGAT, GTTGTCACGTGGGGAC, ACGTGCACGTGAGATG, ATTTACACGTGTGTGG, AGGTGCACGTGACGTT

Relative binding free energy, 0.38 kcal/mol:
TAGTGCACGTGAATTA

Relative binding free energy, -0.19 kcal/mol:
CGTGGCACGTGCTGGA, AGTTGCACGTGGTACT, TTATACACGTGGTATG, GATGCCACGTGGGGGG, TGGGGCACGTGCACTT

Relative binding free energy, 0.26 kcal/mol:
TGGATCACGTGTGTGA, TTTTTCACGTGCTACT, TGTTACACGTGATAGG

Relative binding free energy, 0.36 kcal/mol:
CAATTCACGTGATTTG

Relative binding free energy, 0.28 kcal/mol:
GAGTGCACGTGAAGGC

Relative binding free energy, -0.04 kcal/mol:
TTCAACACGTGGTTGG, GTGTGCACGTGTGCCT

Relative binding free energy, 0.35 kcal/mol:
GCTTTCACGTGGTTGT, TGCAACACGTGAAGTG, AAGGACACGTGAATGT

Relative binding free energy, 0.27 kcal/mol:
TAAATCACGTGTGGTC, CTTTTCACGTGTTTTT, CGTATCACGTGATGGA, CGTTGCACGTGAAGGT, TAATTCACGTGATTTG

Relative binding free energy, 0.32 kcal/mol:
GTGGACACGTGACATT

Relative binding free energy, -0.14 kcal/mol:
TACTGCACGTGGAGTG

Relative binding free energy, 0.12 kcal/mol:
TTGTACACGTGTAATT, GGATACACGTGCTTTT, TTCTTCACGTGGGTTG, TTAGTCACGTGTACTT, ATGGACACGTGTTACA

Relative binding free energy, 0.31 kcal/mol:
TTCTTCACGTGTGTGG, ACGTTCACGTGTAGGG, TTGTTCACGTGTGGTC, TGATTCACGTGGCTTA

Relative binding free energy, -0.11 kcal/mol:
GTAGGCACGTGGAGGT, GTGAGCACGTGTGTCT, GGGTGCACGTGGTGCA

Relative binding free energy, -0.15 kcal/mol:
TCTACCACGTGGGGTT, TTGGGCACGTGCGTAA

Relative binding free energy, 0.29 kcal/mol:
GGTTTCACGTGTCTAG, GTTTTCACGTGTAGAG, TACCTCACGTGTGTGT, TTGAGCACGTGAGGGC, ATGGTCACGTGACGTT, GTTACCACGTGAGTTT

Relative binding free energy, 0.19 kcal/mol:
ATCTTCACGTGTTGGT, TTTCACACGTGTTAAG, TATGTCACGTGTAGTT, GATTTCACGTGGGTGC, CTTGTCACGTGAGGCG

Relative binding free energy, 0.01 kcal/mol:
TACGTCACGTGGGGGG, TGGCACACGTGTGGTT, CGGTACACGTGTTGAT

Relative binding free energy, 0.25 kcal/mol:
GTTCTCACGTGTATGT, AGAATCACGTGTGCTT, GATTACACGTGTAATA

Relative binding free energy, -0.32 kcal/mol:
CGGGGCACGTGGGAGC

Relative binding free energy, -0.24 kcal/mol:
TGTGGCACGTGGGCAT

Relative binding free energy, 0.11 kcal/mol:
GTTTGCACGTGTGTTA, TATGACACGTGTCTTT, TTTTGCACGTGATGGG, TGATACACGTGCTTAG, GTACACACGTGTGAGT

Relative binding free energy, 0.22 kcal/mol:
GTTTACACGTGTGCTT, GTTTTCACGTGGCAGT, GGGATCACGTGTTGAA

Relative binding free energy, -0.01 kcal/mol:
GCTTGCACGTGGTGTT, TTAATCACGTGGGGGA, GGGGGCACGTGTCGAC, TTGGTCACGTGCTAAG, CGTGTCACGTGGCGCG, GCTTGCACGTGTATTG

Relative binding free energy, -0.06 kcal/mol:
ATAGACACGTGGGTAT, TGTACCACGTGGTTGT, TAGAGCACGTGTGTTA, CTCGCCACGTGTGGGG, TGTGGCACGTGTACTG, TTGGCCACGTGGTATT, CATGGCACGTGCTTGT

Relative binding free energy, -0.05 kcal/mol:
GGGGGCACGTGTAGCG, TCGTGCACGTGCGTGT

Relative binding free energy, 0.16 kcal/mol:
TAAGGCACGTGATGTC, ATAAACACGTGATAGT, TGCCTCACGTGGGTAG, TATTGCACGTGACTTT

Relative binding free energy, -0.09 kcal/mol:
GAGGCCACGTGGTAGG, CTTAGCACGTGGTATT, AGATGCACGTGGTAGT

Relative binding free energy, -0.02 kcal/mol:
CAGGGCACGTGTCGGT, ATTGACACGTGTAGGA, TTCGTCACGTGATAGT, GGAGTCACGTGGGCTG, GTGGGCACGTGGGAAT, AGGGCCACGTGTGATT, TAAGACACGTGTTTGT

Relative binding free energy, -0.17 kcal/mol:
CGGGACACGTGGGTGT, ATAGGCACGTGCCGGT

Relative binding free energy, 0.18 kcal/mol:
ATGTACACGTGGAATG, TGGAGCACGTGAAAGG, GAGATCACGTGGCTGT, ATGTACACGTGAGGTA

Relative binding free energy, 0.07 kcal/mol:
TTTCGCACGTGTGTTC, TCGTGCACGTGATAGT, TCTGGCACGTGACGGG

Relative binding free energy, 0.17 kcal/mol:
AAGTCCACGTGTTTTG, TGTTTCACGTGGGGCA

Relative binding free energy, -0.18 kcal/mol:
TTAGCCACGTGGGATG, GGGGGCACGTGCCATG

Relative binding free energy, 0.23 kcal/mol:
TTTTTCACGTGTTGCG, TTGATCACGTGCGAGG, TGGTTCACGTGCAGCT, CTTTTCACGTGTCATT, GTATTCACGTGGAAAG, CTCGTCACGTGAGGGT, AGCGTCACGTGGATGA, TCGGTCACGTGCGGCG, GAGTGCACGTGAGGCG

Relative binding free energy, 0.04 kcal/mol:
TTTGTCACGTGGTCCG, CTGGTCACGTGGTTAA, CTATCCACGTGTGTGT

Relative binding free energy, -0.16 kcal/mol:
TATGACACGTGGTAGT, GGGGGCACGTGGTCTG

Relative binding free energy, -0.07 kcal/mol:
AAAGGCACGTGTCGGG, CTTGGCACGTGTGCAT, ACGGTCACGTGGTATG

Relative binding free energy, 0.15 kcal/mol:
AAGATCACGTGCGTGT, GTGGTCACGTGCGACG, AGGCTCACGTGGCGTG, TTACTCACGTGTGTGG, TGCGTCACGTGAGTTA, GTGGCCACGTGAGGTG

Relative binding free energy, 0.39 kcal/mol:
GGGGTCACGTGACGGA, GGTTTCACGTGGAATG

Relative binding free energy, 0.14 kcal/mol:
TTTATCACGTGCATGT, AGGCTCACGTGTTTAT, GTCGTCACGTGTGGTA, GTTTGCACGTGTGGAG, TAGCTCACGTGTAGGA, CTTTACACGTGTTTTA, TGTATCACGTGGTATA, GGGTACACGTGTTTTG

Relative binding free energy, -0.08 kcal/mol:
TTTGTCACGTGGTCAG, GACGGCACGTGGTTAT, CTAGGCACGTGCTGTA, GGGGACACGTGCGTTA, GTGGCCACGTGGAGGG, GCCGGCACGTGTGGGT, TTATCCACGTGTTGTG

Relative binding free energy, -0.13 kcal/mol:
GTGAGCACGTGCCGTG, TATGGCACGTGGGATG, TTCTGCACGTGGTCGT, GAGGGCACGTGTGTAG, GTGAGCACGTGTCGGA

Relative binding free energy, -0.1 kcal/mol:
TTGGCCACGTGTGCGT, GAAAGCACGTGGGAGT, TTTGACACGTGGTCTA, GGTACCACGTGGTGTA

Relative binding free energy, 0.13 kcal/mol:
GGGGACACGTGTAGCA, TCGGTCACGTGCGTTA, GGATGCACGTGCGTCT, GGTCACACGTGGTCTT, GATGTCACGTGTTTTC

Relative binding free energy, 0.05 kcal/mol:
TTTTACACGTGCATGA, AGGTGCACGTGTACGT, TGATGCACGTGCGATA, GAGATCACGTGGGTAG

Relative binding free energy, 0.2 kcal/mol:
AGTGACACGTGAAAGG, AACTACACGTGTGTTT
